Experimental data published in the supplement of paper PMC11417369.
The other results are listed elsewhere or left out.

The sequences below were run on PfHDP1 homeodomain (GST-tagged) (assay: gcPBM binding intensity (ln(normalized median fluorescence intensity)); higher = stronger DNA binding).
Summary of the method: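 Binding of GST-tagged P. falciparum DNA-binding domains, expressed in E. coli and used at about 25 μg on average, was carried out for 1 h in 1× PBS containing 1% milk, 0.2 mg/ml BSA, 0.5% salmon testes DNA and 0.03% Triton X-100. The target was an Agilent 4 × 180k array of primer-extended double-stranded 36-bp intergenic genomic probes plus negative controls, read with Alexa488 anti-GST antibody at 488 nm. Binding intensity is the highest Masliner-normalised natural-log median intensity across replicate spots of either probe orientation.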

Compared with “CATTTAGTTCATACTATGCACACTACGTATATTTTT [CACACA_site2694]”, “TCCTTGTTTGGTTTTTTTTTTTCTTCTTTTTTTTTT [CACACA_negctrl_site1355]” is lower in “gcPBM binding intensity (ln)” value: 8.79 for the first, 6.28 for the second.

First: TTAAATGTTATATATTGTACATATAATATATGTATT [XGTACX_site1492]
Second: ACACATACACATTAGGTGCACATAATTCAATATTAC [GTGCAC_site9862]
The “gcPBM binding intensity (ln)” value of the first is lower: 6.11 for the first, 10.6 for the second.

First: ATATATATATAAAGGAGTACATACATTAAAAAAAAA [XGTACX_site1095]
Second: TCTTATTTAAAAATAGCACACATTATATATATATAT [CACACA_site8916]
The “gcPBM binding intensity (ln)” value of the first is lower: 8.3 for the first, 9.04 for the second.

Compared with “AAAAAACATACATACACACACATAAATATATATATT [CACACA_site2699]”, “ATATATACCTATAACACACACATATTTATATTTATA [CACACA_site7257]” is lower in “gcPBM binding intensity (ln)” value: 6.85 for the first, 6.74 for the second.

Compared with “CATATAATATATCAATGTACATATATATTTTATAAA [XGTACX_site5901]”, “TTAGCAACTATTACTACACACATTTTTATATAATTT [CACACA_site1372]” is higher in “gcPBM binding intensity (ln)” value: 6.59 for the first, 6.84 for the second.

Compared with “TAATAAAAAAAGTGCACACACATAATATATATATAT [CACACA_site3340]”, “TATAAATCAATATGTACACACATATACATGTTGAAT [CACACA_site7460]” is lower in “gcPBM binding intensity (ln)” value: 9.23 for the first, 6.36 for the second.

Compared with “ATTATATACATATATATTGTATATACTATACATATG [XGTACX_negctrl_site545]”, “ATTGTCAAAACACGCACACACATATACATAATAACA [CACACA_site1742]” is higher in “gcPBM binding intensity (ln)” value: 6.56 for the first, 7.54 for the second.

First: TCTTATAACAAAAAAAAATAAAAAATAAAACTATAT [GTGCAC_negctrl_site11]
Second: CATATAAATAGACACACACACACATATAAATAAATA [CACACA_site7156]
The “gcPBM binding intensity (ln)” value of the first is lower: 6.43 for the first, 6.79 for the second.

Going from AAATAATATTGAAAAGTGCATATTTTTGTTGATATA to “AAATTTAAATAATGTGCGCATCTTAATATATATAAG [GTGCAC_site9890]”, the “gcPBM binding intensity (ln)” value rises from 7.4 to 7.49.

Compared with “TTTTGAGAATATATGGGTACAAATAAATAAAAATAT [XGTACX_site1933]”, “ATATAACATATTAATAATATATTTATAATATGTTTA [GTGCAC_negctrl_site168]” is lower in “gcPBM binding intensity (ln)” value: 7 for the first, 6.32 for the second.

First: TTATGTTATATATACACACACAAAAGAAAAAAAAAA [CACACA_site2987]
Second: AGGTTAAAAATAAATACACACATTTGATGTCTGTAT [CACACA_site6596]
The “gcPBM binding intensity (ln)” value of the first is higher: 6.48 for the first, 6.38 for the second.

First: AACGCTTATTAGTTGTTGTATATGTGTTCACATATT [CACACA_negctrl_site379]
Second: ATATAAATAAAGAAATATATATATATATATATATAT [GTGCAC_negctrl_site668]
The “gcPBM binding intensity (ln)” value of the first is lower: 6.24 for the first, 9.4 for the second.
